From PubChem BioAssay (NCI)
Where a structure was tested more than once in an assay, its records may differ in their call.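 Values shown are percent growth following 48 h exposure of cells in 96-well plates to a single concentration of compound; below 10 was considered active.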 A number of entries come with more than one value. They are shown here; other results are not. The source may hold further records. This drug was run again and again over the years, at the concentration stated with the values; each value is one run. Brackets with × count equal records among those shown.

System: HCT-116 colon
Assay: NCI-60 one-dose screen, 48 h (100 = growth as untreated, 0 = no growth, -100 = all killed)

## COc1cccc2c1C(=O)c1c(O)c3c(c(O)c1C2=O)C[C@@](O)(C(=O)CO)C[C@@H]3OC1CC(N)C(O)C(C)O1 (some centres undefined)
0.25 µM, runs of 2011
  growth: inactive: 26.1 (2×), 31.5, 26.7, 40.6, 38.2, 30.4 (2×), 29.9, 26.3 (3×), 31.1, 35.5, 34.4, 37.9, 29.8 (3×), 38.1, 37.1, 39, 29.4, 33.1, 32.3, 35.4, 35.1, 34.8, 32, 33.3, 33, 23.1, 30, 25.4, 23.8, 24 (2×), 21.7, 20.8, 24.5, 24.6 (2×), 25.7, 25.9, 20.6, 20.7, 23.2, 22.5, 27.9 (2×), 27.6, 31.8, 26.4, 28.7 (2×), 28.4, 27.3%
0.25 µM, runs of 2012
  growth: inactive: 32.2, 24.6 (2×), 27.3, 24.7, 28.7, 28.9, 29.6, 30, 29.9, 22.3, 23.2 (2×), 20.5, 24.3 (3×), 22.8, 22.9, 21.7 (2×), 24.8 (2×), 24.5 (2×), 22, 20.1, 20.6, 26, 32.3, 28.2 (2×), 26.5 (2×), 27.4, 27.6 (2×), 28.5, 25.9, 25.8, 16.6, 16.9, 31.4, 25.1, 37.9 (2×), 28.1, 34.9, 40.4, 34.4, 36.3, 33.5, 37.4, 42.3, 29.4, 26.1, 27.7, 22.6, 29.7, 26.2, 24, 29%
0.25 µM, runs of 2013
  growth: inactive: 26.2 (2×), 25.8 (2×), 25.9, 28.4 (3×), 30.9, 28.9, 30.8, 34.1, 33.5 (2×), 30, 33.6, 31.2, 35.2 (2×), 30.5 (2×), 28.7, 31.3 (2×), 32.3, 31.1, 29.1 (2×), 26.4 (2×), 28.2, 29.4, 29.8, 20.3 (2×), 34.2, 32.2 (3×), 24.7, 21.5 (2×), 29.9, 30.4 (2×), 32.1, 27.8, 36, 38.2, 34.7, 32.4, 17, 22.2, 25.2, 24.8, 20.8, 23.4, 20.6, 15.7, 21.1, 20.7, 17.7, 16.3, 16.2, 17.4, 21.7, 13, 23%
0.25 µM, runs of 2014
  growth: inactive: 24 (2×), 23.7, 23.9 (5×), 16.6, 13.8, 28.9, 18.7, 16.2, 19.3, 14.7, 17.5, 16.8, 21.3 (2×), 35.2 (2×), 19.5, 23 (2×), 10.4, 27.7, 27.4, 22.8 (2×), 26.3 (2×), 29.5, 29, 25.8, 24.6 (4×), 37.2, 23.2 (2×), 27.8 (2×), 29.6, 23.8, 26.7, 25.1 (2×), 17.9, 17.3, 27.9, 25.9 (2×), 30.3, 28.1, 24.5 (3×), 24.8, 20.8, 23.4, 26.4, 20, 34.2, 19.8, 33.6, 21.8, 25, 34.6, 35.4, 27.6, 21.6, 31.9, 31.8, 19.7, 20.4%
0.25 µM, runs of 2015
  growth: inactive: 25.4, 22.5 (2×), 17.6 (2×), 20.1 (4×), 18, 29.1, 43.9, 23.1 (2×), 22 (2×), 24.1 (2×), 13.3, 18.2, 20 (2×), 21.4, 62.8, 53.2, 17.8, 17.4, 21.9 (2×), 14.1, 26, 19.9 (3×), 15, 12, 11, 16.3, 21.3, 24.2, 15.5, 16.2 (2×), 15.1, 19.4, 17.9, 25.2, 16.1, 13.7, 18.8 (2×), 20.3, 19.1, 16.5 (2×), 21, 17.3, 17, 22.2 (4×), 18.5, 30.5, 32.2 (2×), 23.2, 26.4, 21.6 (2×), 19 (2×), 16.6, 23.7, 20.6, 14, 26.1, 27.1, 16.7, 13, 25.1, 20.8, 23.9, 24.9, 27.3, 22.3, 24.7% and active: 8.45%
0.25 µM, runs of 2016
  growth: inactive: 20.2, 16.6, 20.4, 28.5 (2×), 34.4, 18.7 (2×), 25, 22.5, 23.8, 27.3, 23.4, 18, 10.4, 11, 11.6, 11.5, 18.9 (2×), 20.7 (3×), 11.2, 13.8, 13.3, 17.9, 14.6, 17.8, 13.7, 16.4, 16.3, 15.7, 20.9 (2×), 19.9, 22.1, 15.9, 19.1, 20, 18.4, 18.2, 19.8, 37.9, 22.6 (2×), 22.9, 23.2, 40.8, 38.4, 22.8, 21.4, 30.9, 35.8 (2×), 40.6, 20.3 (2×), 22.3, 25.9, 28.9, 24.1, 29.5, 25.2, 26.4, 29.6, 29.4, 24.7, 30.6, 31.8 (3×), 25.8, 30.3, 26.7, 26.3, 21.5, 30 (2×), 31.9 (2×), 24.9, 32.3%
0.25 µM, runs of 2017
  growth: inactive: 26.1, 28.9, 28.2, 16, 19.9, 19.5, 26.5, 19.3, 19.2 (2×), 22.8, 25.1, 16.9 (2×), 18.4, 19.6, 15.2 (2×), 14 (2×), 14.9, 17.5, 15.3 (2×), 20.5 (3×), 22 (4×), 15, 16.2 (3×), 20.1, 21.1 (3×), 15.4, 19.1, 24.3, 22.2, 21.8 (3×), 21.9 (2×), 23.1, 22.3, 18.8, 17.4 (2×), 20.7, 17.7, 18.7, 17.3, 19.4, 16.6, 16.7, 12.4, 13.8, 23, 25.5, 31.3 (2×), 23.3, 20.2, 20.3, 27.8, 18.6, 20.9, 20.8, 30, 26.2, 24.8, 27.3, 21.2, 21, 46.8, 40.8%
0.25 µM, runs of 2018
  growth: inactive: 26.2 (2×), 25 (2×), 20.1 (2×), 21.4, 29.7, 24.5 (2×), 21, 21.5 (2×), 26.7, 20.4 (2×), 30, 25.1, 24.1, 25.8 (2×), 22.8, 24.6, 26.1 (2×), 21.7 (3×), 25.4, 25.2, 23.2, 22.3, 42.4, 22.1, 21.6, 20, 24.2, 22.2, 38.2, 21.8, 19.6, 23.3, 19.7, 25.5, 19.9, 23.1 (2×), 23.7 (2×), 26.3, 17, 22.5, 11.2, 16.7%
0.25 µM, runs of 2019
  growth: inactive: 19 (2×), 16.5, 19.6, 14.5, 20.5 (2×), 23.8, 23.4 (2×), 25, 18.1 (3×), 20.6 (2×), 18.4 (2×), 21.2, 19.7, 30.3, 18.6, 14.1, 21.6 (3×), 27.7, 20.8, 26.5, 23.3, 18.5, 26.4, 22.8, 21.8 (2×), 21 (2×), 23.9, 20.1, 21.3, 19.8, 22.3, 21.9 (3×), 22.9 (2×), 20.9, 24.9, 25.1, 23%
0.25 µM, runs of 2020
  growth: inactive: 18.4, 22.3, 23.5, 23.7, 22.8, 20.9, 22.4, 23.2 (2×), 22.5, 20.1, 25.6, 21.9, 36.7, 23.4 (2×), 23.1, 29.5, 26, 27.9, 30.3, 22.6, 28.4, 24.7, 26.2, 26.5%
0.25 µM, runs of 2021
  growth: inactive: 26.6, 31.1, 24.2 (2×), 28.5 (2×), 25.8 (3×), 26.7 (2×), 21, 25.1, 20.7 (2×), 29.8, 22.3, 21.4, 24.7, 28.1, 27.7, 23, 22.8 (2×), 21.8, 21.1, 22.4 (2×), 23.2, 27.1, 25.9, 34.1, 31.7, 26, 26.1, 24.9, 26.5, 23.4, 33.3, 23.3, 22, 27.4 (2×), 24.6, 15.9, 23.5, 30.9, 20.6, 21.7%
0.25 µM, runs of 2022
  growth: active: -1.35%, -3.94%, -14.6% and inactive: 25.9, 30.5, 18.8, 12.2, 19.8, 23.9 (2×), 32.4, 29.8, 30.9, 37.3, 28.4, 32, 21.9, 18, 45.1, 55.8, 24.1, 48.4, 40.4, 54.3, 26, 21, 24, 21.5%
25 µM, runs of 1991
  growth: active: 3.93, 9.77, 7.61, -0.602, 2.22, 0.615, -18.9, -33.4, 3, 2.44, 0.0457, -21.5, 4.3, -9.38, -21.9, -41.4, -16.9%
25 µM, runs of 1992
  growth: active: -26.4 (2×), -23.4 (2×), -25.9, -16.9, -16.2 (2×), -18.5, 4.06, 0.0823, 2.39, -11.8, -19, -40.4, -36.6, -9.85, -16.4, -31 (2×), -27.7, -0.403, 2.08, 3.95, 2.22, 3.81 (2×), -15.1, -29.6, -10.7, -15, -59.6, -79.7, -18.6, -21.9, -5.84, -24.5, -33.5, -3.23, -23.1, 0.0321, 2.21, 4.83, -12.3, 0.301, -40.2, 0.893, -71.7, -59.5, -37, -21.1, -20, -30.3, 1.36, 5.97, 3.87, -5.7, 0.958, -16.1, -21.5, -32.3, -17.9, -18.3, 0.433, -10.6, 1.69, 1.48 (2×), -30.4, 1.63, -0.284, 0.682, -100, -25.2, -29.5, -11.7, -23.2, -22.5, 3.16, 4.35, -7.93, -27.6, -2.84, -13.1, -1.59, -0.714, 0.751, -28.8, -40.9, -58.4, 1.01, -9.68, 4.11, -46.2, -45.6, 3.94, 1.64, -35.9, -33.7, 4.61, 3.69, -29.4, -34.3, -8.27, 5.48, 4.66, -34.9, -8.16, -43.1, -16.5, 4.96, -53.3, 2.38%
25 µM, runs of 1993
  growth: active: 0.479, -2.73, -26, 9.25, 2.56, -23.1, 8.04, -1.15, -47.8, 1.02, -23, -13, 1.33, -0.962, -40.1, -1.41, -31.9, -14.7, 4.7, 5.77, -0.938, -15, 2, -6.03, -13.1, -17.1, -4.53, -16.6, -34.4, -20.4, -0.621, 6.96, -71.6, -9.69, -25.3, 1.29, -39.8, 4.77, -18.8, 1.5, -41.8, -6.5, -44.1, -4.6, 6.35, -27.2, -29%
25 µM, runs of 1994
  growth: active: 2.42, -19.7, -20.4, -23.2, -41.9, 2.12, -31.5, -5.02, 0.622, 0.942, -27.6, -20.1, -11.5, -48, -17.1, 4.47, -5.79, 4.9, -21.6, -4.52, -46.3, -18.8, 4.27, -43.4, 7.08, -1.42, -7.55, 3.6, -18.7, 4.91, 4.25, 0.576, -14.9%
25 µM, runs of 1995
  growth: active: -10.6, -24.3, 4.18, 1.89, 2.75, 1.61, 3.12, 1.85, 2.35, 6.78, -27.8, -15.5, 7.59, 8.04, -5.85, 8.06, 2.57, -15.2, -21.7, -56.8, -32.9, -28.7, -11.5, 0.793, 0.922, -19.9, 1.73, 3.77, -34.8, -10.3, -37.7, -39.5, 1.26, 1.68, 3.44, -14.9, -2.67, -0.193, 1.69%
25 µM, runs of 1996
  growth: active: -5.92, -36.9, 0.616 (2×), -3.49, 1.99 (2×), 0.532, 2.77, 4.48, 1.13, 6.7, 6.69, 3.51, -6.76, 7.2, -14, -38.9, -9.2, 1.8, -12.8, -5.54, -7.58, -19, 6.53, 1.93, -13.3, 2.37, 3.25, -17.7, -56.8, -24.5, 2.49, 5.08, 0.43, -9.86, -3.61, -30.8, -8.03, 6.08, 3.79, 2.85, 0.767, -25.8, -14.2, -26.7, 8.79, -5.46, -14.7, -12.1, -20.5, 6, 6.21, 2.48, 6.98, -10, -48.7% and inactive: 97.2%, 35.1%
25 µM, runs of 1997
  growth: active: -10, 1.11, -2.34, 2.79, 0.461, -8.75, 6.32, -18, -29.6, 4.28, 0.387, -1.59, -11.1, 3.78, -47.3, -6.31, 1.71, 5.44, -36, 0.201, 0.933, -24.1, 8.51, -50.9, 1.12, -30, 5.67, 0.675, 0.623, -32.4, -30.7, -3.1, -60.2, -15.1, -11.8, 0.741, 1.93, -7.47, -23.9, -1.25, -27.9, 8.37, -43.4%
